± gives the standard deviation. Whole data set: some 5,500 sequences, median “pre-steady-state target cleavage rate” near 0.1, cut for the highest 2% near 0.64. This is a selection; strong and weak results do not stand in their true shares.
Tested on: MIWI (PIWIL1) piRISC loaded with piRNA #2 (30 nt)
Test: pre-steady-state target cleavage rate (min^-1); MIWI and MILI are mouse PIWI proteins and EfPiwi is from a freshwater sponge; tags in brackets are library labels; higher = faster piRNA-guided slicing of the target
Conditions: guide: piRNA #2 5'p-UUAGGUAACCCAGUAGAUCCAGAGGAAUUC; auxiliary factor: 500 nM mouse GTSF1
Procedure, shortened: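 The pre-steady-state cleavage rate was obtained by Cleave-'n-Seq with a burst-and-steady-state fit. A transcribed, DNA-blocked target RNA library (0.1 nM) was mixed with 1 nM active affinity-purified piRISC carrying one synthetic guide, with or without 500 nM GTSF1 partner protein, in HEPES–potassium acetate buffer at 33 °C for 0–8 or 0–960 min. Uncleaved targets were sequenced and normalised to depth and to weakly complementary targets, with three trials pooled and k3 capped at 0.0001 min^-1.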

Sequence	pre-steady-state target cleavage rate
CUUAAGCUCUGGAUCUACUGGGAAACCUAA	0.0505 ± 0.011
GAAUUCGUCUCGAUCUACUGGGUUACCUAA	0.451 ± 0.052
CUUAAGGAGAGGAUCUACUGGGUUACCUCAA	0.00948 ± 0.0055
CUUAACCUCUGGAACUAGUGGGUUACCUAA	0.139 ± 0.016
CUUAUCCUCUGGGAUCUACUGGGUUACCUAA	0.419 ± 0.035
CUUAAGGAGAGGAUCUACAGGGUUACGUAA	0.00521 ± 0.0049
GAAUUCCUCUGGUUCUACUGGGUUACGUAA	0.618 ± 0.035
CUUAAGGUCUGGAUCUACUGCGAUACCUAA	0.0768 ± 0.023
CAAUUCCUCUGGAUCUACUGGGUAACCUUA	0.168 ± 0.044
CUUAUGCUCUGGAUCUACAGGGUUACCUAA	0.106 ± 0.012
CUUAAGGAGUGGAUCUACUGGGUAUCCUAA	0.0075 ± 0.0043
CUUAAGGGCUGGAUCUACUGGGUUACCUAA	0.159 ± 0.037
CUUUUCGUCUGGAUCUACUGGGAUACCUAA	0.261 ± 0.037
CAUUUCCUCUGGAUCUACUGGGUUAGCUAA	0.403 ± 0.081
CUUUUCCUCUGGAUCUACAGGGUUUCCUAA	0.143 ± 0.021
CAAUUCCACUGGAUCUACUCGGUUACCUAA	0.0731 ± 0.021
CUUAUCCUCUGGAUCUACUGGGUUUCCUAA	0.369 ± 0.07
CUUAUCCUCUGGAUCUUCUGGGUUACCAAA	0.209 ± 0.048
CUUUUCCUCUGGAUCUACUGGGAUACCAAA	0.152 ± 0.035
CUUAAGCUCUGGAACUACUGGCUUACCUAA	0.0572 ± 0.013
GAAUUCCUCUGGAUCUACUGGGUUACGAAA	0.353 ± 0.052
GAAUUCCUCUGGAUCUAGAGGGUUACCUAA	0.0178 ± 0.0056
CAAUUCCUCUGGAUCUACUGGGAUACCUUA	0.219 ± 0.046
CUAUUCUCUCUGGAUCUACUGGGUUACCUAA	0.208 ± 0.028

Sequence	pre-steady-state target cleavage rate
CUUUUCCUCUGCAUGUACUGGGUUACCUAA	0.437 ± 0.023
CUUAACCUCAGCAUCUACUGGGUUACCUAA	0.265 ± 0.023
CAAUUCCUCUGGAUGUACUGGGUUUCCUAA	0.395 ± 0.069
CUUAUCCUCUGGAUCAACUGGGAUACCUAA	0.148 ± 0.022
CUUAAGGUCUGGAUCUAGUGGGUUUCCUAA	0.0268 ± 0.0058
CUUAAGGAGUGCGAUCUACUGGGUUACCUAA	0.0085 ± 0.0067
CUUAAGGAGACCUACUACACCGUUACCUAA	0.00443 ± 0.0017
CUUAUCCACUGGAUCUACUGCGUUACCUAA	0.444 ± 0.06
CUUUUCCUCUGGAUGUACUGGGUUAGCUAA	0.286 ± 0.033
GAAUACCUCUGGAUCUACUGGGUUUCCUAA	0.298 ± 0.056
GAAUUCCUCUGGAUCUACUGGGUAACCAAA	0.112 ± 0.038
GAAUUCCACUGGAUCUACUGGCUUACCUAA	0.194 ± 0.021
GAAUUCCUCUGGAUCUACUUGGGUUACCUAA	0.00445 ± 0.0039
GAAUUCCUCUGGAACUACUGCGUUACCUAA	0.345 ± 0.039
CUUAAGGACUGGAUCUACUGGCUUACCUAA	0.0439 ± 0.032
CUUAAGGACUGGUUCUACUGGGUUAGCUAA	0.0222 ± 0.021
CUUAAGGAGUGGAUCUACUGGGUUACUUAA	0.222 ± 0.038
CUUAAGGACUGGAUCUAUUGGGUUACCUAA	0.0994 ± 0.033
GAAUUCCUCUGGAUCUAAUGGGUUACCUAA	0.121 ± 0.022
CUUAAGCUCAGGAUGUACUGGGUUACCUAA	0.33 ± 0.037
GAAUUCGUCUGGAUCUACUGGGUUAGCUAA	0.293 ± 0.068
GAAUUCCUCUGGAUCUACUGGGUAACCUUA	0.184 ± 0.048
CUUAACCUCUGGAUCUACUGGGUUGACCUAA	0.153 ± 0.014
CUUUUCCUCUGGAUCUACUGCGUAACCUAA	0.174 ± 0.032

Sequence	pre-steady-state target cleavage rate
GAAUUCCUCAGGAUCUUCUGGGUUACCUAA	0.442 ± 0.046
CUAUUCCUCAGGAUCUACUGGGUUACCUAA	0.595 ± 0.064
CUAUUCCUCCUGGAUCUACUGGGUUACCUAA	0.613 ± 0.06
CUUAACCUCUGGAUCUACAGGGUUACCAAA	0.138 ± 0.018
CUUAAGCUCUGCAUCUACUGGGUUACCAAA	0.18 ± 0.026
CUAUUCCUCUGUGAUCUACUGGGUUACCUAA	0.385 ± 0.03
CAAUUCCUGUGGAUCUACUGGGUUUCCUAA	0.339 ± 0.049
CUUAAGGAGAGGAUCUACUGGUUUACCUAA	0.0137 ± 0.004
CUUAUCCUCUGGAUCUACUGGGUUACCAAA	0.489 ± 0.07
CUUUUCCUCUGGAUCUACUCGGUUACCUUA	0.062 ± 0.017
CUUAAGCUCUGGAUUCUACUGGGUUACCUAA	0.0752 ± 0.0094
CUAAUCCUCUGGAUCUACUCGGUUACCUAA	0.0905 ± 0.013
CUUUUCCUCUGGAUCUACUGGCUAACCUAA	0.0159 ± 0.0054
CAAUUCCUCUGGAUCAUACUGGGUUACCUAA	0.0132 ± 0.0056
CUUAAGGACUGGUUCUACUGCGUUACCUAA	0.0359 ± 0.033
CUUUUCCCUCUGGAUCUACUGGGUUACCUAA	0.312 ± 0.042
CUAUUCCUCUGGAUCUACUGGGUUAUCUAA	0.613 ± 0.075
CUUAUCCUCUGGAUCUUCUGGGUUACCUAA	0.375 ± 0.053
GAAUUCCUCUGGAUCUACUCGGUUUCCUAA	0.0428 ± 0.014
CUUUUCCAGAGGAUCUACUGGGUUACCUAA	0.0983 ± 0.019
CUUAAGGAGAGGUUCUACUGGGUUACGUAA	0.00763 ± 0.0034
CAAUUCGUCUGGAUCUACUGGGUUACCUUA	0.378 ± 0.072
CUUAAGGACUGGAUCUACUGGGUAUCCUAA	0.0256 ± 0.019
CUUAAGGAGUGGAUCUACUGGGUUACGUAA	0.298 ± 0.044

Sequence	pre-steady-state target cleavage rate
GAAUUCCUCUGGAUCCUACUGGGUUACCUAA	0.2 ± 0.046
CUAAUCGUCUGGAUCUACUGGGUUACCUAA	0.413 ± 0.055
GAAUUCCUCUGGAUCUACUCGGUUACCUAA	0.107 ± 0.02
CUUAAGGAGACGAUCUACUGGGUUACCCAA	0.00413 ± 0.0025
CAAUUCCUCUGGAUCUACUGGGUAACGUAA	0.241 ± 0.061
GAAUUCCUCUGGAUCUACUGGGUAAGCUAA	0.224 ± 0.037
CUUUUGCUCUCGAUCUACUGGGUUACCUAA	0.382 ± 0.027
CUUAAGCACUGGAUCUACUCGGUUACCUAA	0.0367 ± 0.012
CUUAUCGUCUGGAUCUACUGGGUUAGCUAA	0.193 ± 0.054
CUUUUCCUCUCGAUCUACUGCGUUACCUAA	0.845 ± 0.072
CUUAAGGUCUGGAUCUACUGGGUUACCGAA	0.1 ± 0.018
CUUAUCCUCUGGUUCUACUGGGUUUCCUAA	0.166 ± 0.064
CUAUUCCUCGUGGAUCUACUGGGUUACCUAA	0.216 ± 0.037
CUUAACCUCUGGAACUUCUGGGUUACCUAA	0.248 ± 0.019
CAAUUCCUGUGGAUCUACUGGGUUACCUUA	0.47 ± 0.07
CUUAAGGACUGGAGCUACUGGGUUACCUAA	0.117 ± 0.052
CUUAAGCUCUGGAUCUACAGGGUUACCUUA	0.0779 ± 0.0086
CAAUUCCUCUGGAUCUACCGGGUUACCUAA	0.167 ± 0.02
GAAUUCCUGUGGAUCUACUCGGUUACCUAA	0.133 ± 0.021
CUAAUCCUCUGGAUGUACUGGGUUACCUAA	0.551 ± 0.052
CUUAAGGAGACCAUCUUCUGCGUUACCUAA	0.00306 ± 0.0029
CUUAUCCUCAGGAUCUACUGGGUUACCUAA	0.602 ± 0.065
CUUAAGGUCUGGAUCUACUGGGUUACCAA	0.159 ± 0.029
GAAUUGGACUGGAUCUACUGGGUUACCUAA	0.19 ± 0.078

Sequence	pre-steady-state target cleavage rate
CUUAAGGACUGGAUCUACUGGGCUACCUAA	0.0533 ± 0.029
CUUAUCCUCUGGAUCAACUGGGUUACCUUA	0.318 ± 0.043
CUUUUCCUCCUGGAUCUACUGGGUUACCUAA	0.53 ± 0.058
CUUAAGCUGACGAUCUACUGGGUUACCUAA	0.0245 ± 0.0043
CUUAAGGUCUGGAUCUACUGGGUAACCAAA	0.0111 ± 0.0067
CUUAUCCUCUGGAAGAACUGGGUUACCUAA	0.0642 ± 0.023
GAAUUCCUCAGGAUCUACUGGGUUUCCUAA	0.438 ± 0.082
CUUAAGCUCUGGAUCUACUGGGAUAGCUAA	0.0795 ± 0.015
CUUAAGGAGACCAUCUACUGGGUAUACCUAA	0.00537 ± 0.0038
CUAUUCCUCUGGAUCUACAGGGUUUCCUAA	0.114 ± 0.018
CUUAAGGAGUGCAUCUACUGGGUUACGUAA	0.0109 ± 0.003
CUUAAGGACUGGAUCUAGUGCGUUACCUAA	0.013 ± 0.0093
CUAUUCGUCUGGAUCUACUGGGUUUCCUAA	0.472 ± 0.057
CUAUUCCUCUGGUAUCUACUGGGUUACCUAA	0.343 ± 0.049
CUUAACCUCUGGAUCUACUGGGUUACCUAU [g2:g25:cont:t1U]	0.185 ± 0.022
CUUAAGGAGUGGAUCUACUGGAUUACCUAA	0.0894 ± 0.025
CUUAAGCUCUGGAUCUACUGGGUUUCCUUA	0.0482 ± 0.013
CUUAAGGUCUGGAUCUACUGGGUAACCUAA	0.103 ± 0.027
CUUAACCUCUCGAUCUUCUGGGUUACCUAA	0.47 ± 0.044
CUUAUCCUCUGGAUCUUCUGGCUUACCUAA	0.0237 ± 0.0092
CUUAAGGUCUGGAUCUACUGGGUUACCUCAA	0.279 ± 0.039
CUUAAGGAGUGGAUCUACUGGGUUACGUUA	0.0506 ± 0.013
CUUAAGCUUUGGAUCUACUGGGUUACCUAA	0.213 ± 0.022
CUUAACCUCUGGUUCUACUGGGUUAGCUAA	0.201 ± 0.067

Sequence	pre-steady-state target cleavage rate
CUUAACCUCUGGAUCUACUGGGAUAGCUAA	0.0953 ± 0.016
CUAUUCCUCUGGAUCUACUGGGUUACCUGA	0.41 ± 0.14
CUUAAGGUCUGGUACUACUGGGUUACCUAA	0.12 ± 0.025
CUUAAGCUGUGCAUCUACUGGGUUACCUAA	0.135 ± 0.015
GAAUUCACUCUGGAUCUACUGGGUUACCUAA	0.166 ± 0.04
CUUAAGGACUCGGAUCUACUGGGUUACCUAA	0.0726 ± 0.02
GAAUUCUCUGGAUCUACUGGGUUACCUAA	0.253 ± 0.049
CUUAUCUCUCUGGAUCUACUGGGUUACCUAA	0.18 ± 0.028
CUUAAGGUCUGGAUCUACUGGGAAUCCUAA	0.0099 ± 0.0043
CUAUUCCUGUGGAUCUACUGGGUUACCUAA	0.5 ± 0.052
CUUAUCCUCUGGAUCUACAGGGUUACCUAA	0.254 ± 0.025
CUUAUCCUCUGGAACUACUGGCUUACCUAA	0.109 ± 0.01
CUUAAGCUCUGGAUCUACUGGGUUACCUUAA	0.0919 ± 0.017
CUUAUCCUCUCGAUCUACUGGGUUACGUAA	0.728 ± 0.046
GAAUUCCUCUGGAUCUACUGGGUUGCCUAA	0.323 ± 0.053
GAAUUCCUCUGGAUCUACUGGGAUACGUAA	0.235 ± 0.037
CUUAAGGAGACCUACUAGUGCGUUACCUAA	0.00858 ± 0.0025
CAAUUCCUCUGCAUCUACUGGGUUAGCUAA	0.365 ± 0.035
CUUAACCUCUGGAUCUACUGGGUUACUCUAA	0.134 ± 0.015
CUUAAGGUCUGGAUCUACUGGGUUAGCAAA	0.0302 ± 0.012
CUUAAGGUCUGGAUCUACUGGGUUACGCUAA	0.401 ± 0.045
CUUAACCUCUGGAUCUACAGGGAUACCUAA	0.111 ± 0.013
CAAUUCCUCUGGAUCAACUGGGUUACGUAA	0.455 ± 0.057
CUAUUGCUCUGGAUCUACUGCGUUACCUAA	0.314 ± 0.047

Source: the supplement of paper PMC10338343
